# Assay results published in PubChem BioAssay AID686979 (National Center for Advancing Translational Sciences (NCATS), 2013).
# Among all 420,000 compounds or so, about 50,000 (12%) were called active. The shares of active, inactive and inconclusive entries below differ from those in the screen. The call rests on the fitted dose curve; in most records, active means well fitted inhibition curve with a large enough effect; inconclusive means small, poorly fitted or top-dose-only effect; inactive means flat fitted curve, though single readings scatter. Potencies of inconclusive entries are left out as doubtful fits.
# Assay: qHTS for Inhibitors of human tyrosyl-DNA phosphodiesterase 1 (TDP1): qHTS in cells in presence of CPT; further: nearly all actives have a fitted effect of over 55% in size
# Settings: chicken DT40 Tdp1-/-;hTDP1 cells + 20 nM CPT, ATP luminescence, 48 h; activity change, negative = growth inhibition: at 46.2 µM (top of the series) unless noted
# Procedure, shortened: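 Cell growth measured by CellTiter-Glo luminescence after a minimum 48 h, 37 C compound exposure with 20 nM CPT in Tdp1-knockout DT40 cells stably expressing hTDP1, seeded 400/well; qHTS titration format.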
# On the % scale 0 is the no-effect control and ±100 the full control effect; potency means the concentration at half of the fitted maximal effect; tags describe the fitted curve by direction and shape.
SMILES,Potency,"activity change, negative = growth inhibition"
CC(C)NC(=O)c1ccc(Cn2c(=O)c3cccn3c3cccnc32)cc1,inactive,–
CCCCn1c(N)c(N(CC)C(=O)c2ccccc2C(F)(F)F)c(=O)[nH]c1=O,inactive,–
COC(=O)c1ccc2c(=O)[nH]c(CSc3nc(C)cs3)nc2c1,"inconclusive [inhibitor, single point]",–
N#C/C(=C\c1ccc(N2CCOCC2)o1)C(=O)Nc1ccc(O)cc1,–,inconclusive: -34.5% [inhibitor]
O=C(O)CCC(=O)Nc1ccc(Cc2ccc(NC(=O)CCC(=O)O)c(O)c2)cc1O,inactive,–
COc1cc2c(C#Cc3cccnc3)c(-c3ccsc3)oc(=O)c2cc1OC,"inconclusive [inhibitor, single point]",–
CCOC(=O)c1c(NC(=O)C(C)Sc2cn(CCNC(=O)c3ccc(OC)c(OC)c3)c3ccccc23)sc2c1CCC2 (stereo not given),active: 20.6 µM,–
Cc1ccc(N=Nc2c(N)nn3c(C)cc(C)nc23)cc1,"inconclusive [inhibitor, single point]",–
Oc1c(N=NC(=S)Nc2ccccc2F)c2ccccc2n1Cc1ccccc1F,active: 16.4 µM,–
CCc1ccc(NC(=O)[C@H](Cc2ccccc2)NC(=O)C2CCN(C(=O)[C@@H](N)CC(C)C)CC2)cc1,"inconclusive [inhibitor, single point]",–
Nc1c(C(=O)Nc2cccc(Cl)c2)sc2nc3c(cc12)CN(Cc1ccccc1)CC3,active: 7.31 µM,–
Cc1ccc(S(=O)(=O)N2[C@@H](c3ccc(C(C)(C)C)cc3)C(C(=O)O)=CC[C@H]2c2ccc3c(c2)OCO3)cc1,"inconclusive [inhibitor, single point]",–
CCOC(=O)CCCC(=O)N1CCOCCOCCOCC1,inactive,–
Cc1ccc(-c2csc(NC(=O)CN3CCOCC3)n2)cc1,active: 16.4 µM,–
Cc1ccc(OCC(=O)N(Cc2ccccc2)C(C)(C)C)c([N+](=O)[O-])n1,"inconclusive [inhibitor, single point]",–
Cc1ccc(S(=O)(=O)NC(C)C(=O)NCc2ccc(Cl)cc2)cc1 (stereo not given),"inconclusive [inhibitor, single point]",–
CCn1c(=Nc2ccc(N3CCOCC3)cc2)ccc2ccccc21,"inconclusive [inhibitor, single point]",–
COc1ccc2nc3sc(C(=O)Nc4cc(Cl)c(OC)cc4OC)cc3cc2c1,"inconclusive [inhibitor, full curve, poor fit]",–
CC(C)C(=O)Nc1ccc(NC(=O)c2cc3ccccc3o2)cc1,"inconclusive [inhibitor, partial curve]",–
COc1ccc(S(=O)(=O)N2CCN(CC(=O)Nc3sccc3C(N)=O)CC2)cc1OC,"inconclusive [inhibitor, single point]",–
O=C(NCCC1=CCCCC1)c1ccc2c(c1)N(Cc1ccc(F)cc1)C(=O)c1ccccc1S2(=O)=O,active: 20.6 µM,–
S=C(Nc1ccc(N2CCOCC2)cc1)Nc1ccc2nc(-c3ccco3)c(-c3ccco3)nc2c1,"inconclusive [inhibitor, single point]",–
Cc1cc(OCC(=O)Nc2ccccc2C)no1,inactive,–
O=C(CSc1nncn2c1cc1sccc12)Nc1ccccc1C(F)(F)F,inactive,–

SMILES,Potency,"activity change, negative = growth inhibition"
CC(=O)c1ccccc1OCCn1nc(C(=O)O)c2ccccc2c1=O,inactive,–
COc1cc(C2CC(=O)N(CC(=O)NCC3CCCO3)c3ccccc3S2)cc(OC)c1OC (stereo not given),inactive,–
S=c1nc(-c2ccccc2)[nH]c2ccc(Br)cc12,inactive,–
CC1CCCCN1N=Nc1nc2c([nH]1)c(=O)n(C)c(=O)n2C (stereo not given),"inconclusive [inhibitor, partial curve]",–
O=[N+]([O-])c1ccc(/C=N/N2CCN(Cc3ccccc3)CC2)cc1,"inconclusive [inhibitor, single point]",–
Cn1c(CCN2CCN(c3ccccn3)CC2)nc2cc(NC(=O)COc3ccc(Cl)cc3)ccc21,active: 18.4 µM,–
CCCc1ccc(OCc2ccc(C(=O)NCc3cccnc3)o2)c(OC)c1,"inconclusive [inhibitor, single point]",–
COc1ccc(-c2nnc(SC(C)C(=O)NCc3ccc4c(c3)OCO4)n2Cc2ccco2)cc1 (stereo not given),"inconclusive [inhibitor, single point]",–
CCN1CCN(Cc2c(O)ccc3c(=O)c(Oc4ccccc4Cl)c(C(F)(F)F)oc23)CC1,"inconclusive [inhibitor, single point]",–
CCOc1ccccc1N(CC(=O)Nc1ccc(OC)cc1OC)S(=O)(=O)c1ccccc1,"inconclusive [inhibitor, single point]",–
N/C(=N\OC(=O)c1cccc2ccccc12)c1ccccn1,"inconclusive [inhibitor, single point]",–
Cc1cc(C)cc(N(CCC#N)C(=O)COC(=O)CCc2c[nH]c3ccccc23)c1,inactive,–
CSc1cc(-c2ccncc2)nc(-c2ccc(Cl)cc2)c1,inactive,–
Cc1cccn2c(=O)c3cc(C#N)c(=NC(=O)c4ccccc4)n(Cc4ccco4)c3nc12,active: 18.4 µM,–
Cc1ccccc1C(=O)NCC(c1cccnc1)N1CCc2ccccc21 (stereo not given),"inconclusive [inhibitor, single point]",–
O=C(c1ccc(-c2ccc(Cl)cc2)o1)N1CCN(c2ccc([N+](=O)[O-])cc2Cl)CC1,active: 5.17 µM,–
O=C(CSc1nc2sccc2c(=O)[nH]1)N1CCN(c2ccccc2)CC1,"inconclusive [inhibitor, single point]",–
CN(Cc1ccc(-n2cccn2)cc1)Cc1nc(-c2cnccn2)no1,inactive,–
O=C(Nc1nnc([C@H]2C[C@H](O)[C@@H](CO)O2)s1)NC(c1ccccc1)c1ccccc1,"inconclusive [inhibitor, partial curve]",–
Fc1ccccc1N1CCN(CCCc2ccccc2)CC1,inactive,–
Cc1cc(NC(=O)c2ccc3c(c2)C(=O)N(Cc2ccccc2)C3=O)no1,"inconclusive [inhibitor, single point]",–
C(=C\c1ccco1)/C=N/n1cnnc1,"inconclusive [inhibitor, single point]",–
COc1ccc(CC(=O)Nc2nnc(SCc3ccccc3)s2)cc1S(=O)(=O)N1CCOCC1,"inconclusive [inhibitor, single point]",–
COC(=O)c1ccc(SCc2ccccc2)nc1,"inconclusive [inhibitor, single point]",–

SMILES,Potency,"activity change, negative = growth inhibition"
CCC(C)[C@H]1CN=C(N)N1CCc1cc(C(F)(F)F)cc(C(F)(F)F)c1 (stereo not given in full),active: 3.26 µM,–
O=C1CCC/C=C/C[C@@H](CC(=O)N(CCO)Cc2ccccc2)C(=O)NC[C@H](c2ccccc2)O1,"inconclusive [inhibitor, single point]",–
Cc1cccc(N2CCN(S(=O)(=O)c3ccc4oc(=O)c5ncn(C)c5c4c3)CC2C)c1 (stereo not given),inactive,–
O=C(c1cccc(S(=O)(=O)N2CCOCC2)c1)N1CCCC1,–,inconclusive: -35% [inhibitor]
N=c1c(C(=O)NCc2ccco2)cc2c(=O)n3ccccc3nc2n1Cc1ccccc1,"inconclusive [inhibitor, single point]",–
C/C(=C\c1ccc(F)cc1)C(=O)c1c(C)cc(C)[nH]c1=O,inactive,–
CCC(=O)N(Cc1c(C)nn(-c2ccccc2)c1Cl)c1ccc(Cl)cc1,"inconclusive [inhibitor, partial curve]",–
O=CNc1cc(-c2cccc(F)c2)cn2c(-c3ccc(F)c(Cl)c3)cnc12,active: 23.1 µM,–
COc1ccc(N2CCOCC2)c(NC(=O)c2cc3ccccc3o2)c1,"inconclusive [inhibitor, single point]",–
Cc1cc(C(=O)COc2ccc(C#N)cc2)c(C)n1CC1CCCO1 (stereo not given),active: 29.1 µM,–
CCc1cc(=O)oc2cc(OCC(=O)NCc3ccccn3)ccc12,"inconclusive [inhibitor, single point]",–
COC(=O)c1c(NC(=O)COC(=O)C2CCC2)sc(C)c1C,inactive,–
Cc1cccc[n+]1CCCCCCCCCC[n+]1ccccc1C,"inconclusive [inhibitor, single point]",–
COC(=O)c1ccc(CN2CCC(CO)(Cc3cccc(OC)c3)CC2)cc1,"inconclusive [inhibitor, single point]",–
CC1=C(C(=O)OC2CCCCC2)C(c2cccnc2)n2ncnc2N1 (stereo not given),active: 14.6 µM,–
O=S(=O)(Nc1ccccc1N1CCOCC1)c1ccccc1C(F)(F)F,"inconclusive [inhibitor, single point]",–
CCOC(=O)c1c(C)sc(-c2c(-c3ccc4c(c3)OCCO4)[nH]c3c2c(=O)[nH]c(=O)n3C)c1O,"inconclusive [inhibitor, single point]",–
O=C(CSc1ncccn1)N1CCC(Cc2ccccc2)CC1,"inconclusive [inhibitor, partial curve]",–
NC(=O)COc1ccc(NC(=O)c2ccccc2-c2ccccc2)cc1,inactive,–
COC(=O)c1[nH]c2cccc(C)c2c1NC(=O)CN1CCN(c2ccccc2OC)CC1,"inconclusive [inhibitor, single point]",–
CC(C)(C)OC(=O)C[C@@H]1C/C=C\C[C@@H](CC(=O)N[C@@H](CO)Cc2ccccc2)C(=O)NC[C@@H](c2ccccc2)OC1=O,active: 23.1 µM,–
NC(=O)c1ccccc1NC(=O)NC1CCCCC1,inactive,–
